Consider 62 molecules from PubChem BioAssay AID485344 (National Center for Advancing Translational Sciences (NCATS), 2010).

Hit rate of the full screen: of about 340,000 compounds, about 6,900 (2%) were called active. Cut-off read from the data, not from the text of the source: active = inhibition above about 30%; inactive = below that, where a call was filed. Only a part is listed here, and it is no random draw. Entries without a call were filed so in the source.

The target of the assay is D(2) dopamine receptor (Homo sapiens) (UniProt P14416). The assay is described as follows: HTS Assay for Allosteric Antagonists of the Human D2 Dopamine Receptor: Primary Screen for Antagonists. Note: 0% is about no effect. The settings on record: HEK293 TREx D2 cells, calcium flux, dopamine EC80; at 10 µM; stronger effect = higher value. Put shortly: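 Antagonism is scored as inhibition of an EC80 dopamine-evoked calcium signal in a force-coupled, tetracycline-inducible HEK293 T-REx D2 line, with compound present 180 s before agonist.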
UniProt P14416, sequence (P14416 whole entry, looked up): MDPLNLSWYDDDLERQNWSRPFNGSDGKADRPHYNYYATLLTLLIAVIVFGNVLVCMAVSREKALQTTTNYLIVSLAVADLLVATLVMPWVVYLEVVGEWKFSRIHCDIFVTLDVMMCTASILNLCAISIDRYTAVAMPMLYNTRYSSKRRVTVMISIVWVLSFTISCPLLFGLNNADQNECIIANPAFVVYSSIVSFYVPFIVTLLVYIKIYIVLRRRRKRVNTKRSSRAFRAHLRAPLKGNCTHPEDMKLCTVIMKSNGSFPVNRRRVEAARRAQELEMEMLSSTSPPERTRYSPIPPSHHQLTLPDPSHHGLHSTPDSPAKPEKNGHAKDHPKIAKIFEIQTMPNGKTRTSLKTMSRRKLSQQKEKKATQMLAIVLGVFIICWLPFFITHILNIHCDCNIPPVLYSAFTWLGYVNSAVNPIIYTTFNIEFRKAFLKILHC
(Calcium flux is commonly read through the fluorescence of an indicator in the cells.)
By inhibition is commonly meant the change of the read-out against control, counted positive when it falls. Turning to `CCOc1ccc(CNC(=O)CCC(=O)N2Cc3ccccc3Oc3ncccc32)cc1`, the inhibition was determined as 10.1%. As for `Cc1ccn2c(Nc3ccccc3C)c(-c3ccncc3)nc2c1`, the figure is -3.99%. Consider `CCN(CCN(C)C)C(=O)Cn1ncc2c([nH]c3ccc(C)cc32)c1=O`, for which the inhibition is -3.08%. For the molecule `Cc1ccc(CNC(=O)C2CCN(Cc3nc(-c4ccccc4C)oc3C)CC2)cc1`, the inhibition was -10.5%.

For the molecule `CCCCn1c(CN2CCN(c3ccc(OC)cc3)CC2)nc2c1c(=O)[nH]c(=O)n2C`, the inhibition came to 8.03%.

On to `Cc1cccc(NC(=O)CSc2nnc(CNC(=O)c3cccc(C)c3)n2-c2ccccc2)c1`, for which the inhibition is -12.3%. Turning to `Cc1ccccc1Cn1c(-c2cccs2)nc2ccccc21`, the inhibition turned out to be 4.64%. As to `COc1ccc(-c2noc(CN(C(=O)c3ccccc3Cl)C(C)C)n2)cc1`, the inhibition is -3.85%. Regarding `O=C(CCn1c(=O)c2cccn2c2cccnc21)N1CCN(c2ccc(F)cc2)CC1`, the inhibition was -5.76%. The value for `COc1ccc(C(=O)Nc2ccc3nc(SCC(=O)N4CCCC4)sc3c2)cc1` was -11.1%. As for `CCCC(=O)Nc1nnc(SCc2cc(=O)n3ccccc3n2)s1`, the figure is -2.58%; as for `COc1ccccc1CCNC(=O)Cn1ccc2cc(S(=O)(=O)N3CCCCC3)ccc21`, -1.56%; as for `O=C(NC1CCCCC1)c1ccc2c(c1)N(Cc1ccccc1F)C(=O)c1ccccc1S2`, 10.6%. The value for `Cn1c(=O)c(=O)n(C)c2cc(S(=O)(=O)N3CCCC3C(=O)Nc3cccc(F)c3)ccc21` (configuration not stated) was 12.5%; that for `CCOc1ccccc1NC(=O)c1ccc2c(c1)CCN2S(C)(=O)=O` was 9.7%. Take `COc1cc(C2c3c(-c4cc(C)ccc4O)n[nH]c3C(=O)N2Cc2cccnc2)cc(OC)c1OC` (configuration not stated): the inhibition amounted to 3.03%. `Cc1ccc(-n2c(SCC(=O)N3CCc4ccccc43)nc3c([nH]c4ccccc43)c2=O)cc1`: the inhibition was determined as 8.67%. As for `CCn1cc2nc(SCC(=O)Nc3cc(OC)ccc3OC)n(Cc3ccc(Cl)cc3)c(=O)c2n1`, the figure is 5.36%. In the case of `O=C(Nc1ccc(OC(F)(F)F)cc1)c1cc2c(=O)n3ccccc3nc2s1`, the inhibition was -13.8%. The value for `CCS(=O)(=O)N1CCc2cc(C(=O)Nc3cc([N+](=O)[O-])ccc3C)ccc21` was 3.54%.

In the case of `CCOC(=O)c1c(NC(=O)/C(C#N)=C/c2ccc(OC)cc2)sc2c1CCC2`, the inhibition was found to be 11%. The value for `CCc1ccc(NC(=O)c2sc(-n3nc(C)c(CCC(C)C)c3C)nc2C)cc1` was 14.2%; that for `Cc1cccc(C)c1OCC(=O)N(Cc1ccccc1F)C1CCS(=O)(=O)C1` (configuration not stated) was 5.32%; that for `COc1ccc(C(=O)N2CC(=O)Nc3ccc(Br)cc3C2c2ccc(F)cc2)cc1OC` (configuration not stated) was 9.26%. The value for `COc1ccc(NC(=O)c2ccc3oc(=O)c(S(=O)(=O)c4ccc(F)cc4)cc3c2)cc1OC` was -1.18%.

For `CCOC(=O)c1cc(-c2ccc(OC)cc2)n(CCC(=O)NCCN2CCC(C)CC2)c1C`, the inhibition was active: 66.4%. As for `CCn1cc(S(=O)(=O)N2CCN(Cc3cccc(Cl)c3)CC2)cn1`, the figure is active: 33.5%. Take `COc1ccc(CCn2c(C)nc3c(c(=O)c4ccccc4n3C)c2=O)cc1`: the inhibition was active: 49.3%.

Consider `Cc1ccc(-n2cnc3cc(C(=O)NCCC4=CCCCC4)ccc32)c(C)c1`, for which the inhibition is 8.86%. As for `Cc1cc(NC(=O)c2ccccc2F)ccc1-c1nc2ccccc2s1`, the figure is -5.47%; as for `CCCOc1ccc(NC(=O)CC2C(=O)N(CC)C(=S)N2CCCN2CCN(Cc3ccccc3)CC2)cc1` (configuration not stated), active: 33.4%; as for `Cc1ccc(Nc2nc(-c3ccccc3)nc3ccccc23)cc1`, 4.76%. The value for `Cc1c(C(=O)Nc2ccc(F)cc2F)oc2c1-c1nn(Cc3c(F)cccc3Cl)cc1CC2` was -17.4%; that for `O=C(NC1CC(=O)N(c2ccc(F)cc2)C1)C1CCCC1` (configuration not stated) was 0.825%. With `Cc1ccc(Cc2cnc(NC(=O)c3ccc4c(c3)CC(c3ccccc3)OC4=O)s2)cc1` (configuration not stated), the inhibition is 22.8%. Turning to `CC(=O)c1ccc(S(=O)(=O)Nc2ccc(-c3cn4c(C)csc4n3)cc2)cc1`, the inhibition stood at 18.8%. As for `COc1ccc(C)cc1NC(c1nnc(-c2ccccc2)o1)c1ccc(F)cc1Cl` (configuration not stated), the figure is 6.46%; as for `CCOC(=O)c1c(NC(=O)c2ccc(C)cc2)sc2c1CCCCC2`, -15%. The value for `C/C(=N\NC(=O)c1nnn(-c2nonc2N)c1CN1CCCCC1)c1ccccc1O` was active: 30.1%; that for `CCc1ccc(N2CC(c3nnc(NC(=O)c4ccco4)s3)CC2=O)cc1` (configuration not stated) was 12.6%; that for `O=C(NCCN1CCN(c2ccccc2F)CC1)c1ccc2nc3ccccc3c(=O)n2c1` was active: 56.7%. Take `N#Cc1ccccc1NC(=O)CSc1nc(-c2ccccc2)cc(C(F)(F)F)c1C#N`: the inhibition is -0.183%. Take `COc1ccc(-c2cn3c(n2)sc2cc(C(=O)NCCC4=CCCCC4)ccc23)cc1`: the inhibition was -3.12%.

As to `COc1ccc(OC)c(NC(=O)C(C)n2c(=O)cc(C)c3c(C)nn(-c4ccccc4)c32)c1` (configuration not stated), the inhibition was -7.28%.

Turning to `Cc1ccc(CNC(=O)c2c[nH]c3ccc(S(=O)(=O)N4CCOCC4)cc3c2=O)cc1`, the inhibition turned out to be 0.0038%. Take `Cc1cc(C)n(CCc2nc3c4ccccc4nc(SCc4ccc(F)cc4)n3n2)n1`: the inhibition is 9.68%. As for `O=c1c2cnn(-c3ccc(F)cc3)c2ncn1Cc1ccccc1Cl`, the figure is -7.4%; as for `Cc1ccc(NC(=O)Cn2c(=O)c3ccc(Cl)cc3n3nncc23)cc1`, -9.48%. With `CCNC(=O)c1ccc(C)c(-n2c(C)nc3cccnc32)c1`, the inhibition came to 1.69%. On to `O=C(Cn1c(-c2cccs2)cc2ccccc21)N1CCN(c2ccc(Cl)cc2)CC1`, for which the inhibition worked out at 17.4%. As for `Cc1ccc(S(=O)(=O)NC(=O)NN2CCCCCC2)cc1`, the figure is active: 34.4%; as for `CCn1c(Cc2ccccc2)nnc1SCC(=O)Nc1ccc(N2CCOCC2)c(Cl)c1`, active: 39.2%; as for `Cc1nc(-c2ccc(S(=O)(=O)N3CCN(c4cccc(C(F)(F)F)c4)CC3)cc2)co1`, -16.9%. As for `CC1CCN(C(=O)c2cc3c(=O)n(C)c4cc(Cl)ccc4c3s2)CC1`, the figure is -0.76%. As for `CCCOc1ccc(-c2nonc2NC(=O)c2ccco2)cc1OCCC`, the figure is -5.72%; as for `Cc1cc(Br)cc(C)c1NC(=O)c1sc2ncn(Cc3cccc(F)c3)c(=O)c2c1C`, 5.44%; as for `Cc1ccc(S(=O)(=O)c2nnn3c2nc(NC2CCCCCC2)c2sccc23)cc1C`, 10%.

Consider `CC(C)c1nn2c(=O)cc(COC(=O)C3CCCCC3)nc2s1`, for which the inhibition was -5.29%.

For `CC(CCN1CCN(c2ccccc2)CC1)c1ccccc1` (configuration not stated), the inhibition was active: 72.6%.

On to `CCCN1CCN(C(=O)Nc2cccc(C(F)(F)F)c2)CC1`, for which the inhibition is active: 51.6%. The value for `Cc1ccc(CN(Cc2ccco2)C(=O)c2ccccc2Br)o1` was -12.4%. With `COc1ccc(OCc2cccc(C(=O)O)c2)cc1`, the inhibition is active: 34.9%.
